From patent publication US11891445 (ABL BIO, dated 2024)

T1: human B7-H3 expressed on a cell surface (human cancer cell lines) (human, UniProt Q5ZPR3 29-534)
T1 construct: whole, on cells; also called cell surface expression B7-H3 antigen
T1 sequence (looked up): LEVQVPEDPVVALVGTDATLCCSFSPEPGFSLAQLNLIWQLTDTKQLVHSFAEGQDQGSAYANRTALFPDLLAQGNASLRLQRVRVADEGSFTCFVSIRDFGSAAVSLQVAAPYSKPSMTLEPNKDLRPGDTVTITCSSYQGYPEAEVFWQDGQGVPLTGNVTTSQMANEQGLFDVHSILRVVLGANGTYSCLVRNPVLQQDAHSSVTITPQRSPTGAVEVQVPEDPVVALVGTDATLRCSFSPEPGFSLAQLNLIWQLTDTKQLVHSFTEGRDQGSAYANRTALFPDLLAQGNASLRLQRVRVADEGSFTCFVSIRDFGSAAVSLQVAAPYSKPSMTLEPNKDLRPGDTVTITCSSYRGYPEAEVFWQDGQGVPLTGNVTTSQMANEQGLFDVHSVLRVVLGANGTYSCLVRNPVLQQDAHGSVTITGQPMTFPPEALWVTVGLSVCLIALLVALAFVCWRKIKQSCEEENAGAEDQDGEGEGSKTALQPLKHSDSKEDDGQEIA

T2: recombinant human B7-H3 protein with a histidine tag linked to the C terminal (2318-B3/CF, R&D Systems) (human, UniProt Q5ZPR3 29-461)
T2 construct: range 1-461; Bought; also called B7-H3-His antigen; recombinant human B7-H3-his protein
T2 sequence (looked up): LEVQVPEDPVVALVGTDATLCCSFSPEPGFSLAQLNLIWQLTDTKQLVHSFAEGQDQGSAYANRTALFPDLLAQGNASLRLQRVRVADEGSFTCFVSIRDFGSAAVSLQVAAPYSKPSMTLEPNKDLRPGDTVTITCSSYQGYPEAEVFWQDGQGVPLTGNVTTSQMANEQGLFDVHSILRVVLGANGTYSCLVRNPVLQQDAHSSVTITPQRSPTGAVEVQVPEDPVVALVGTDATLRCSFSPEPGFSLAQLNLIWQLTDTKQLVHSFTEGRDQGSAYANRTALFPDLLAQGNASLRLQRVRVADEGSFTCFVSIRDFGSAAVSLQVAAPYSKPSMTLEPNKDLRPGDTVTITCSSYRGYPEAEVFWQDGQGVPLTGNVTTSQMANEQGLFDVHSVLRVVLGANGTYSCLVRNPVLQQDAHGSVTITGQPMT


Columns and labels:
[1] = molecular target: T1, human B7-H3 expressed on a cell surface …; test: flow cytometry, MCF-7 cells, antibody 10 ug/ml
[2] = molecular target: T1, human B7-H3 expressed on a cell surface …; test: flow cytometry, Calu-6 cells, antibody 10 ug/ml
Source text: Using various kinds of cancer cells A2780 (human ovarian cancer, ECACC, 93112519), SKOV-3 (human ovarian adenocarcinoma, ATCC® HTB-77™) OVCAR-3 (human ovarian adenocarcinoma, ATCC® HTB-161™), HCT116 (colon cancer cell, ThermoFIshcer Sci), HT29 (olorectal adenocarcinoma, ATCC® HTB-38™), DLD-1 (colorectal adenocarcinoma cell lines, ATCC® CCL-221™), Calu-6 (Non-small-cell lung carcinoma, ATCC® HTB-56™), HCC1954 (TNM stage IIA, grade 3, ductal carcinoma, ATCC® CRL-2338™), HCC1187 (TNM stage IIA, ATCC® CLC-2322™), renal cancer cell line 786-0 (renal cell adenocarcinoma, ATCC® CRL-1932™), A498 (kidney carcinoma, ATCC® HTB-44™), Panc-1 (pancreas epithelioid carcinoma, TCC CRL-1469™), NCI-N87 (gastric carcinoma, TCC CRL-5822™), HeLa (cervix adenocarcinoma, ATCC® CCL-2™), JeKo-1 (Lymphoma, ATCC® CRL-3006™) and FACSCalibur (BD Biosciences) device, the degree of binding of anti-B7-H3 antibody to B7-H3 was measured as follows.
After dissociating each cell line and washing it with PBS buffer, the number of cells was counted and adjusted to 2×10^5 cells/200 µl PBS, and then was treated with 10 µg/ml of B7-H3 monoclonal antibodies prepared in Example 2. Reaction was allowed at 4° C. for 1 hr. After washing the reacted cells in PBS, the FITC-labeled constant region (Fc)-specific antibody (Goat anti-human IgG FITC conjugate, Fc specific, Sigma, F9512, concentration: 2.0 mg/ml)) was diluted by 1:500 and added 100 µl per well. and Reaction was allowed at 4° C. for 1 hr. After the reaction, cells were washed in PBS and analyzed using the FACSCalibur device. The negative control group was treated by the FITC-labeled constant region (Fc) specific antibody only. To compare expression degrees of B7-H3 among different cancer cell lines, the value for the peak shift in the experimental groups treated with the B7-H3 monoclonal antibody was divided by the value for the peak shift in the negative control group (MFI Ratio, Mean Fluorescence Intensity Ratio).

[3] = molecular target: T2, recombinant human B7-H3 protein with a …; test: SPR, antibody captured on Protein A chip, B7-H3 antigen 3.125-100 nM as analyte
Method: The binding affinity of antigen B7-H3 and anti-B7-H3 antibody was measured by SPR method. First, anti-B7-H3 antibody diluted by 1×HBS-EP buffer was captured with 50 RU on Protein A chip (GE healthcare, Cat. No. 29127556) at a contact time of 60 sec, a stabilization period of 60 sec and a flow rate of 30 µl/min. With 1×HBS-EP buffer, the antigen B7-H3 (R&D systems, 2318-B3-050/CF) was serially two-fold diluted starting from 100 nM to 3.125 nM. At this point, 1×HBS-EP buffer was additionally prepared as a blank. The B7-H3 antigen prepared on the chip in which the anti-B7-H3 antibody was captured was flowed at a flow rate of 30 µl/min for the association time of 60 sec and dissociation time of 180 sec. Regeneration was conducted with 10 mM Glycine-HCl pH1.5 (GE healthcare, Cat. No. BR100354) at a flow time of 30 µl/min and a contact time of 30 sec.

Row | MFI Ratio [1] [ratio] | MFI Ratio [2] [ratio] | Kd [3] [nM] | koff [3] [s⁻¹] | kon [3] [M⁻¹ s⁻¹] | Binder
1 | 136 | 43.2 | 18.5 | 0.00381 | 206000 | anti-B7-H3 antibody D8G (full IgG form) (antibody) heavy: EVQLLESGGGLVQPGGSLRLSCAASGFTFSSYSMSWVRQAPGKGLEWVSGIYSDGSNTYYADSVKGRFTISRDNSKNTLYLQMNSLRAEDTAVYYCAKMLHRFDYWGQGTLVTVSS[human IgG1 constant region not shown] light: QSVLTQPPSASGTPGQRVTISCSGSSSNIGSNSVTWYQQLPGTAPKLLIYADSQRPSGVPDRFSGSKSGTSASLAISGLRSEDEADYYCGTWDSSLNAYVFGGGTKLTVLGQPKAAPSVTLFPPSSEELQANKATLVCLISDFYPGAVTVAWKADSSPVKAGVETTTPSKQSNNKYAASSYLSLTPEQWKSHRSYSCQVTHEGSTVEKTVAPAECS
2 | 109 | 45.5 | 7.69 | 0.00341 | 444000 | anti-B7-H3 antibody C4I (full IgG form) (antibody, also called C41) heavy: EVQLLESGGGLVQPGGSLRLSCAASGFTFSGYYMSWVRQAPGKGLEWVSLISPSSGSIYYADSVKGRFTISRDNSKNTLYLQMNSLRAEDTAVYYCAKGLTKFDYWGQGTLVTVSS[human IgG1 constant region not shown] light: QSVLTQPPSASGTPGQRVTISCTGSSSNIGSNDVSWYQQLPGTAPKLLIYANSHRPSGVPDRFSGSKSGTSASLAISGLRSEDEADYYCGSWDDSLSGYVFGGGTKLTVLGQPKAAPSVTLFPPSSEELQANKATLVCLISDFYPGAVTVAWKADSSPVKAGVETTTPSKQSNNKYAASSYLSLTPEQWKSHRSYSCQVTHEGSTVEKTVAPAECS
3 | 151 |  | 8.03 | 0.00088 | 110000 | anti-B7-H3 antibody F6V (full IgG form) (antibody) heavy: EVQLLESGGGLVQPGGSLRLSCAASGFTFSDYAMSWVRQAPGKGLEWVSGISPGGSNTYYADSVKGRFTISRDNSKNTLYLQMNSLRAEDTAVYYCAKDAWIARLLLFDYWGQGTLVTVSS[human IgG1 constant region not shown] light: QSVLTQPPSASGTPGQRVTISCSGSSSNIGSNAVTWYQQLPGTAPKLLIYYNNKRPSGVPDRFSGSKSGTSASLAISGLRSEDEADYYCGTWDDSLSGYVFGGGTKLTVLGQPKAAPSVTLFPPSSEELQANKATLVCLISDFYPGAVTVAWKADSSPVKAGVETTTPSKQSNNKYAASSYLSLTPEQWKSHRSYSCQVTHEGSTVEKTVAPAECS
4 | 154 | 47.9 | 3.02 | 0.00112 | 372000 | anti-B7-H3 antibody B5 (full IgG form) (antibody) heavy: EVQLLESGGGLVQPGGSLRLSCAASGFTFSDYAMSWVRQAPGKGLEWVSSISSGSGSIYYADSVKGRFTISRDNSKNTLYLQMNSLRAEDTAVYYCAKNLIPLDYWGQGTLVTVSS[human IgG1 constant region not shown] light: QSVLTQPPSASGTPGQRVTISCSGSSSNIGSNAVSWYQQLPGTAPKLLIYYNSHRPSGVPDRFSGSKSGTSASLAISGLRSEDEADYYCGSWDASLNAYVFGGGTKLTVLGQPKAAPSVTLFPPSSEELQANKATLVCLISDFYPGAVTVAWKADSSPVKAGVETTTPSKQSNNKYAASSYLSLTPEQWKSHRSYSCQVTHEGSTVEKTVAPAECS
5 | 152 | 47.8 | 10.4 | 0.0037 | 357000 | anti-B7-H3 antibody 10F11 (full IgG form) (antibody) heavy: EVQLLESGGGLVQPGGSLRLSCAASGFTFSSYGMSWVRQAPGKGLEWVSGIYSGGSSKYYADSVKGRFTISRDNSKNTLYLQMNSLRAEDTAVYYCAKNRLRFDYWGQGTLVTVSS[human IgG1 constant region not shown] light: QSVLTQPPSASGTPGQRVTISCTGSSSNIGSNSVTWYQQLPGTAPKLLIYSDSHRPSGVPDRFSGSKSGTSASLAISGLRSEDEADYYCGTWDASLNAYVFGGGTKLTVLGQPKAAPSVTLFPPSSEELQANKATLVCLISDFYPGAVTVAWKADSSPVKAGVETTTPSKQSNNKYAASSYLSLTPEQWKSHRSYSCQVTHEGSTVEKTVAPAECS
